This note sets out measurements from article PMC7819943, “Rice protein-binding microarrays: a tool to detect cis-acting elements near promoter regions in rice”.

This is one part of the list.

The test addresses T1, OsWOX13 (Oryza sativa, UniProt Q5QMM3 1-267).
T1 sequence: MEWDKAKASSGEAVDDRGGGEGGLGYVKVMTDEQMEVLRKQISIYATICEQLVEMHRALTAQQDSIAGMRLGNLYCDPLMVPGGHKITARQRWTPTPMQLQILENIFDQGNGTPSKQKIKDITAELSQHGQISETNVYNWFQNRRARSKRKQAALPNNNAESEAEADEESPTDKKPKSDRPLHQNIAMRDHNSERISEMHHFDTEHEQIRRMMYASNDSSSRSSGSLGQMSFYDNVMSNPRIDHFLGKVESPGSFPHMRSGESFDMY
Briefly: protein-binding microarray (RPBM); PBS, 2% BSA, 51.3 ng/ul salmon testes DNA, 50 uM zinc acetate, 200 nM TF, 25 C, 1 h; high values mean tight binding. The following applies: protein: recombinant; tags: N-terminal polyhistidine and DsRed monomer fusion (pET32a); label: CyDye5-dUTP incorporated in the synthesized complementary strand; 3' TTTTT single-stranded linker to array surface; dsDNA, one strand shown. The procedure, abridged:
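Ni–NTA purification followed expression in E. coli BL21-CodonPlus of transcription factors fused N-terminally to a polyhistidine tag and DsRed. At 200 nM in PBS with 2% BSA, salmon testes DNA and 50 µM zinc acetate, the protein was incubated for 1 h at 25 °C with a custom Agilent array that had been primer-extended with Cy5-dUTP and blocked with 2% BSA. After washing, the array was read on an Axon 4000B scanner. The binding signal is per-feature fluorescence intensity in arbitrary units.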
In the case of “TAAATAAGAGTATCGTGATTAGTTGAGATTGGAAACTGTGCGGAGTCACCTAGTGCAG”, the binding signal was 9350 fluorescence intensity (a.u.).
For “ACTCTAAATTTAAACTTTTCACTCAATTGAAACTTTTCAACGGAGTCACCTAGTGCAG” the value was 15300 fluorescence intensity (a.u.); for “CTTAAACAAATGATAGTACGATCCCATCTGATTGGGTGTTCGGAGTCACCTAGTGCAG”, 7540 fluorescence intensity (a.u.).
For the sequence “AAAATTATCATAATAAATAATTGGAGCTGAATCGAGTAATCGGAGTCACCTAGTGCAG”, the binding signal was 18100 fluorescence intensity (a.u.).
For the sequence “TTCACTTAGCTACATCAATCAAGGAAAATTAAGCTTAGCACGGAGTCACCTAGTGCAG”, the binding signal was 12700 fluorescence intensity (a.u.).
Then “GCTAGTTAATTGTCGACAATTTTCAGCTTTCAATTTGTTGCGGAGTCACCTAGTGCAG”, with 10200 fluorescence intensity (a.u.); and “ATAATTGAGTAGATAATCCTTGCAATAATCCGCTCAATAACGGAGTCACCTAGTGCAG”, with 8180 fluorescence intensity (a.u.); and “CAATTAAACACGTGATTTCTATCCGGCACGTAACGTACCCCGGAGTCACCTAGTGCAG”, with 16000 fluorescence intensity (a.u.).
Turning to “TTCTGTCAAACTAAAATTAATGGTCTGTCTGAAAGTGGTGCGGAGTCACCTAGTGCAG”, the binding signal is 6110 fluorescence intensity (a.u.).
Then “TCTGATTGCAGAACATACAGAATCCTAATCAATGCTGACCCGGAGTCACCTAGTGCAG”, with 24600 fluorescence intensity (a.u.); and “TGGACAATCAATCAGGACAACCGCAGTACGGCATGGCTGACGGAGTCACCTAGTGCAG”, with 29400 fluorescence intensity (a.u.); and “CGCTGTCATAAATTGAAATTAAATGACGATCAGCGTGAATCGGAGTCACCTAGTGCAG”, with 40300 fluorescence intensity (a.u.).
As to “ATAACGACGAGGCAATCAAATGTATAGTAATCCCTTCGTCCGGAGTCACCTAGTGCAG”, the binding signal was 4630 fluorescence intensity (a.u.).
As for “AATGATTTCTTCCATGAGGTTCTACCTCTTGTTAAAATTCCGGAGTCACCTAGTGCAG”, the binding signal is 3530 fluorescence intensity (a.u.).
As for “TCTGATTAATTGTGCTTCACGGAAGGAAGGAAGGAGACTGCGGAGTCACCTAGTGCAG”, the binding signal is 49000 fluorescence intensity (a.u.).
For “AAATTAATTGCTGCACGATATGATATGGCCACTCGCACACCGGAGTCACCTAGTGCAG” the value was 36300 fluorescence intensity (a.u.).
For “ATAATACTTAATTAATCACGTGCTAATGGCCTGCTCCGTTCGGAGTCACCTAGTGCAG”, the binding signal is 16600 fluorescence intensity (a.u.).
Take “CCATCAATCACCCCATCGATGCTTCTCCACCGGAGAAGTCCGGAGTCACCTAGTGCAG”: the binding signal is 12000 fluorescence intensity (a.u.).
On to “AGTAATTAAATCTTGAAACTTGACACATTGAACCATCAAACGGAGTCACCTAGTGCAG”, for which the binding signal was 10300 fluorescence intensity (a.u.).
With “CACTCTAATTTGTGGACTACTACAGCTATTTGTTGATACCCGGAGTCACCTAGTGCAG”, the binding signal is 14100 fluorescence intensity (a.u.).
On to “AATGCCATTATGATATGATTAATTAAGTATTAACTATGATCGGAGTCACCTAGTGCAG”, for which the binding signal is 9040 fluorescence intensity (a.u.).
Regarding “TATTACTAAATCTCATGCATGATTGACGAATACTTGCATACGGAGTCACCTAGTGCAG”, the binding signal is 18200 fluorescence intensity (a.u.).
“CCCTGACCTCTTAATTACTCCCTCTCTCTCACACTCACACCGGAGTCACCTAGTGCAG”: the binding signal is 6570 fluorescence intensity (a.u.).
Turning to “GTGGTTCTGAATTTTGATTGCTTCGTGCTTTTCGTTTGGGCGGAGTCACCTAGTGCAG”, the binding signal was 6990 fluorescence intensity (a.u.).
For “AGAGTACATGATTACCACCAAACACTGGGATGTACTTATACGGAGTCACCTAGTGCAG” the value was 6510 fluorescence intensity (a.u.).
Regarding “TTCATAACTTTATTTCTCAATCAATCATAAACTTGTCCCACGGAGTCACCTAGTGCAG”, the binding signal was 27000 fluorescence intensity (a.u.).
Regarding “GATGACTTTGTCAATCTCAAGATATGCTCATAGGGGATAGCGGAGTCACCTAGTGCAG”, the binding signal is 10500 fluorescence intensity (a.u.).
Then “AAAGATTATGAATTATGGATATTAGGAGAGAACTGGGATACGGAGTCACCTAGTGCAG”, with 5070 fluorescence intensity (a.u.); and “AGCTAAATTGCAGCTGCTGTGCAGCAGCTGTGCTACAGTGCGGAGTCACCTAGTGCAG”, with 3790 fluorescence intensity (a.u.); and “TTGGCTTTGGATTGAACAATTCGGTGGATAGACGTGTAGACGGAGTCACCTAGTGCAG”, with 3540 fluorescence intensity (a.u.).
For “ACATAAAATATAGTCTGATGAGTGATGATAGCCCTAACATCGGAGTCACCTAGTGCAG” the value was 4610 fluorescence intensity (a.u.); for “TTTGGTAATTGTACATGCCGGGTATTATATTGTTCTGACGCGGAGTCACCTAGTGCAG”, 6530 fluorescence intensity (a.u.); for “CTTAATTAATGCAATGACAATTTAGGTGGGGAACCTCTCCCGGAGTCACCTAGTGCAG”, 42200 fluorescence intensity (a.u.).
On to “AATTGTTTGATTGAAATTAATGTACTCTTGAATGGATAAACGGAGTCACCTAGTGCAG”, for which the binding signal is 32600 fluorescence intensity (a.u.).
For “CTCTAAATTAGTGTTTAAATATATGGACTAAAGTTAAGTCCGGAGTCACCTAGTGCAG” the value was 33400 fluorescence intensity (a.u.); for “GTAAATCAATTTAGTTATATGTTCTATCTAGCCTGTAACTCGGAGTCACCTAGTGCAG”, 18200 fluorescence intensity (a.u.).
For “TTCTAATTTCTAACGAGTTTATCTCTCTCATCCAATTCCTCGGAGTCACCTAGTGCAG” the value was 8040 fluorescence intensity (a.u.); for “CATATAAATTGGGAAGCCAAGTCCCAGCTTCTGAAAGCATCGGAGTCACCTAGTGCAG”, 16900 fluorescence intensity (a.u.).
Then “GAGTCTAATTAGTCTATGATTAGTCATAAGTGCTATAGTACGGAGTCACCTAGTGCAG”, with 39300 fluorescence intensity (a.u.); and “CTACCATGTTTTAATTAACAAACCAAATGGAAGATCATGACGGAGTCACCTAGTGCAG”, with 7490 fluorescence intensity (a.u.); and “AGCCTAAATCATTTTATTGATGCTAAAATCCCACTGTACACGGAGTCACCTAGTGCAG”, with 4330 fluorescence intensity (a.u.).
“CTATATAACCGCCAATCCTCTCACTGACGAACGCCAAGAGCGGAGTCACCTAGTGCAG”: the binding signal is 3630 fluorescence intensity (a.u.).
